# Article PMC4336329 (PLoS ONE, 2015)
# Among all 310,000 compounds or so, about 2,200 (0.71%) showed an effect of 50% or more. The effect is printed as a negative number. The list shows a part of the results.
# Target: human ether-à-go-go-related gene (hERG) potassium channel (human, UniProt Q12809)
# Test: primary screen, population patch clamp on CHO cells stably expressing hERG
# human ether-à-go-go-related gene (hERG) potassium channel, sequence (Q12809 whole entry, looked up): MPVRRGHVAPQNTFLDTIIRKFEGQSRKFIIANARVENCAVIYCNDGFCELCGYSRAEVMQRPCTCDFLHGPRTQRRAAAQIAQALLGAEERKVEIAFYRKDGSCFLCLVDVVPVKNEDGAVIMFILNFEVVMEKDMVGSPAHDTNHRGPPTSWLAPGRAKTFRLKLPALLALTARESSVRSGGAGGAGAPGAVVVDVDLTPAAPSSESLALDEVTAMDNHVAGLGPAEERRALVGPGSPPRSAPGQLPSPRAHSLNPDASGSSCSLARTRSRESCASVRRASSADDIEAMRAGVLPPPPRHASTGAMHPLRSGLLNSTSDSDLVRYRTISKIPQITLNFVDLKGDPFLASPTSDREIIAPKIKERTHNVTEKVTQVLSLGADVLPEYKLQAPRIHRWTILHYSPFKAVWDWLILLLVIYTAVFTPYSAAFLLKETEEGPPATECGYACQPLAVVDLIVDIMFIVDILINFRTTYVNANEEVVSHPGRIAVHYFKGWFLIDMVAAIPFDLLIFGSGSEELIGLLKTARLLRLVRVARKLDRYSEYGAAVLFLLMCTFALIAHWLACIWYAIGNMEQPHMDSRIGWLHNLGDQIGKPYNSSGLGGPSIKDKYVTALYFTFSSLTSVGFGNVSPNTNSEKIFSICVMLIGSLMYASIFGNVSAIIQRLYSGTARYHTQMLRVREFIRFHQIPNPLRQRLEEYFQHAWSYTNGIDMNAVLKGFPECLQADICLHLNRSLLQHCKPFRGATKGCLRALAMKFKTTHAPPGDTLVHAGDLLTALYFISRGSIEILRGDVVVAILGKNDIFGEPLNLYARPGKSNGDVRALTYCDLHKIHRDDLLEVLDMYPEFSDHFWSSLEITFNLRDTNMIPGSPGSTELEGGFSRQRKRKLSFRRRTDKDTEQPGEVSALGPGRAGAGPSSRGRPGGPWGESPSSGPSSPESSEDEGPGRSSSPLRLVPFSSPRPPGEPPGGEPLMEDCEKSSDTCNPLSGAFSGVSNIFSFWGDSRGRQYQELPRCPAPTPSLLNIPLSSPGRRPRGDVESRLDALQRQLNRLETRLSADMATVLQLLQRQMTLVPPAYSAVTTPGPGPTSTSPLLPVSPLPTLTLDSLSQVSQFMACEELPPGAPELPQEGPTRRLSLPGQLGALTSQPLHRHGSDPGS
row,SMILES,"hERG current change (%, negative = inhibition) at 1uM [%]"
1,CCCOP(=O)(c1ccc(N(C)C)cc1)C(Nc1ccccc1)c1ccc(C)cc1 (centres unmarked),-4.42
2,CCOc1ccccc1NC(=O)CSC1=NN2CCCC(=O)N=C2S1,5.32
3,CC(C)C(NS(=O)(=O)c1cccs1)C(=O)NCc1ccc2c(c1)OCO2 (centres unmarked),-2.5
4,FC(F)Oc1ccc(NC(=S)N2CCN(Cc3ccccc3)CC2)cc1,2.94
5,COc1cccc(CN2C(=O)N(C(C)C)C(N(O)C(=O)NC(C)C)C2(C)C)c1OC (centres unmarked),8.36
6,COc1cc(/C=C2\C(C)=C(C#N)c3nc(N)c(C#N)c(C)c32)ccc1OCC(=O)O,4.98
7,Cc1ccc(CNC(=O)CN(c2ccc(C(C)C)cc2)S(=O)(=O)c2c(C)noc2C)cc1,13.3
8,C#CCN1N=C(c2ccc(C)cc2)CSC1=O,14.5
9,O=C(Nc1ccccc1N1CCCCC1)c1ccc2nccnc2c1,8.74
10,O=C([O-])c1cc([N+](=O)[O-])ccc1Nc1ccccc1.[Na+],4.39
11,CCC(=O)c1ccc(OCC(=O)OCC(=O)N2c3ccccc3CC2C)cc1 (centres unmarked),-1.42
12,C=CCNC(=O)C1CC2Cn3c(nc4cc(Cl)c(Cl)cc43)C2N1C (centres unmarked),-0.672
13,Cc1ccc(N2CC(=O)Nc3c(sc4nc(C)cc(C)c34)C2=O)cc1,5.12
14,Cc1nc(C(=O)N(C)C)nn1-c1ccc(Cl)cc1Cl,7.99
15,COC(=O)C1C(=O)C2=C(CC1C)NC(=O)CC2c1ccc(F)cc1 (centres unmarked),21.6
16,N#CCCN(C(=O)COC(=O)CNC(=O)C12CC3CC(CC(C3)C1)C2)c1ccccc1,-6.31
17,O=C(Nc1cc(Cl)ccc1-n1cncn1)c1ccc([N+](=O)[O-])o1,5.03
18,COc1cc(C2C(C(C)=O)=C(O)C(=O)N2Cc2ccccc2)ccc1O (centres unmarked),13.6
19,CC(Nc1cc(N2CCNCC2)ccc1[N+](=O)[O-])c1ccccc1 (centres unmarked),11.1
20,COc1ccc(CN2C(=O)c3cccc4cccc2c34)cc1F,16
21,CCCC(=O)Nc1nnc(SCC)s1,19
22,Cc1cc(C(=O)Nc2ccc3c(c2)OCCO3)c2ccccc2n1,12
23,S=C(NCCc1ccccc1)Nc1ccc(Cl)cc1,8.15

row,SMILES,"hERG current change (%, negative = inhibition) at 1uM [%]"
1,CN(C1CCCCC1)S(=O)(=O)c1cccc(C(=O)OCC(=O)NC2CCCc3ccccc32)c1 (centres unmarked),3.79
2,COc1ccc(N2CC(C(=O)NCCc3ccc(Cl)cc3)CC2=O)c(OC)c1 (centres unmarked),-12.5
3,CC(OC(=O)/C(C#N)=C/c1ccc(N(C)C)cc1)C(=O)N(C)Cc1ccccc1 (centres unmarked),5.88
4,COc1cc2nc(-c3ccc(Br)o3)oc(=O)c2cc1OC,11.7
5,COc1ccc([N+](=O)[O-])cc1NC(=O)C1CCCCC1C(=O)O (centres unmarked),6.15
6,COc1ccc(C(c2sc3nc(C)nn3c2O)N2CCC(C(N)=O)CC2)cc1OC (centres unmarked),-7.46
7,O=C(CN1C(=O)NC2(CCCc3ccccc32)C1=O)Nc1cc(F)ccc1F (centres unmarked),7.28
8,C=CCOc1ccc(/C=C2\SC(=S)N(CCC(=O)O)C2=O)cc1,15.8
9,CCCCCNc1c(C(=O)OCC)c(=O)[nH]c2ccccc12,4
10,N#Cc1nc(Cl)c(Cl)c(NN)c1Cl,18.2
11,Cc1ccc(-c2csc3ncnc(SCC(=O)c4ccc5c(c4)OCCO5)c23)cc1,0.145
12,CCc1cccc(NC(=O)Cc2ccc(OC)c(OC)c2)c1,3.92
13,CCOC(=O)C1(Cc2ccccc2)CCCN(Cc2ccncc2)C1 (centres unmarked),1.89
14,CC(=O)N1CN(C(C)=O)CN(C(C)=O)C1,6.19
15,Cc1ccc(NC(=S)N=Nc2c(O)[nH]c3ccccc23)cc1,12.5
16,S=C(NCc1ccccc1)Nc1ccc2cn[nH]c2c1,1.27
17,CCOC(=O)c1ccc(N2CSC3=C(C#N)C(c4ccc(OC)cc4OC)CC(=O)N3C2)cc1 (centres unmarked),11.9
18,COc1cc(C(=O)NC2CCCc3c2cnn3-c2ccccc2F)cc(OC)c1OC (centres unmarked),11.1
19,CCC1CCCCN1C(=O)CSc1nnc(-c2ccco2)o1 (centres unmarked),11.2
20,Cc1nn2c3c(cnc2c1-c1ccccc1)C(=O)CCC3,10.7
21,CC1CC(=O)Nc2ccccc2N1C(=O)Nc1ccc(F)cc1F (centres unmarked),14.7
22,COc1ccc(CCNC(=O)C2(C)CCC(=O)N2Cc2ccc(F)cc2Cl)cc1OC (centres unmarked),16.2
23,Cc1cc(-c2nn(-c3ccccc3F)cc2CN2CCN(c3ccncc3)CC2)c(C)s1,-69.3

row,SMILES,"hERG current change (%, negative = inhibition) at 1uM [%]"
1,CCOC(=O)Nc1ccc2c(c1)N(C(=O)C(C)N1CCCC1)c1ccccc1CC2.Cl (centres unmarked),-28.3
2,COc1ccc(/C=N/n2c(=O)[nH]c3c([nH]c4ccc(Br)cc43)c2=O)cc1CN1CCOCC1,10.5
3,Cc1ccc2cc(CN(C(=O)c3ccco3)c3cccc(C)c3C)c(=O)[nH]c2c1,14.9
4,O=C(Nc1nc2ccccc2s1)c1ccccc1[N+](=O)[O-],11.1
5,c1ccc(Cc2nnc3sc(Nc4ccccc4)nn23)cc1,4.65
6,CCNC(=S)N(Cc1cc2cc(C)c(C)cc2[nH]c1=O)C1CCCC1,17.4
7,O=C(/C=C/c1ccc(Cl)cc1)NC(=S)Nc1ccc(N2CCOCC2)c(Cl)c1,-11.9
8,CN(C(=O)c1ccc(OC2CCN(C(=O)c3cccnc3)CC2)cc1)C1CCCCC1,8.5
9,c1ccc(C2Oc3ccccc3C3CC(c4cccs4)=NN32)cc1 (centres unmarked),12.6
10,O=C(O)c1cccc(COc2ccc(CO)cc2Cl)c1,4.22
11,O=C(O)CC(Cc1ccc(Cl)cc1)C(=O)Nc1cc(Cl)ccc1Cl (centres unmarked),18.4
12,CSc1ccccc1C(=O)N1CCC2(CC1)CC(=O)c1ccccc1O2,-27.2
13,C/C(=N\NC(=O)c1ccoc1C)c1ccc(Br)s1,8.15
14,NC(=O)c1ccc(NC(=O)COC(=O)C2CC(=O)N(Cc3ccccc3)C2)cc1 (centres unmarked),8.73
15,CCOC(=O)N1CCN(C(=O)CN2C(=O)NC(c3ccccc3)(c3ccccc3)C2=O)CC1,8.05
16,CCCCN1CCc2[nH]c(=S)[nH]c(=O)c2C1,8.77
17,NNC(=O)C1CCN(S(=O)(=O)c2ccc(Cl)cc2)CC1,15.2
18,COC(CN(C)C(C(=O)NC1CCCCC1)c1ccccc1)OC (centres unmarked),3.32
19,COc1ccc(O)c(-c2[nH]ncc2C(=O)c2ccccc2)c1,10
20,CCOC(=O)C1CN(C(C)(C)C)C(=O)C1=O (centres unmarked),16.2
21,Cc1nc(Cl)sc1C(=O)Nc1cccc(Cl)c1,24.2
22,COc1ccc(C2SCCN2S(=O)(=O)c2ccccc2)cc1 (centres unmarked),5.35
23,COc1ccc(/C=C/C(=O)c2oc3ccc(F)cc3c2C)cc1,9.81

row,SMILES,"hERG current change (%, negative = inhibition) at 1uM [%]"
1,O=C(CCc1nnc2ccc(N3CCCC3)nn12)Nc1cc(F)ccc1F,-9.58
2,C[C@]12C=CC(=O)C=C1CC[C@@H]1C2[C@@H](O)C[C@@]2(C)C1CC[C@]2(O)C(=O)COC(=O)CCC(=O)O (some centres unmarked),-0.804
3,Nc1nc(CSCCO)nc(Nc2ccc(F)cc2)n1,13.1
4,CC1(C)CC(=O)C2=C(C1)NC(=O)CC2c1cccc(F)c1 (centres unmarked),-3.96
5,O=C(Nc1cc(Cl)ccc1Oc1ccccc1)c1cnccn1,13.6
6,O=C(CN1C(=O)COc2ccccc21)NCCCN1CCN(Cc2ccccc2)CC1,7
7,Cc1cn(C2OC(COC(=O)c3ccccc3)C(O)C2Cl)c(=O)[nH]c1=O (centres unmarked),8.3
8,CC(=O)N(Cc1cccs1)Cc1cc2ccc(C)c(C)c2nc1Cl,13.1
9,O=C1C2ON(c3ccccc3)C(c3ccccc3F)C2C(=O)N1c1ccccc1 (centres unmarked),5.18
10,Cc1onc(-c2c(F)cccc2Cl)c1C(=O)N1CCc2ccccc21,-12.8
11,CCc1nc(SCc2cccnc2)c(C#N)cc1C,-7.01
12,CCN1C(=O)c2cccc3c(S(=O)(=O)N4CCC(C)CC4)ccc1c23,7.25
13,CC(=O)Nc1ccc(NC(=O)CSc2nnc(C)c(=O)n2N)cc1,2.82
14,CS(=O)(=O)N1CCc2cc(C(=O)Nc3ccccc3Cl)ccc21,1.93
15,Cc1ccc(NS(=O)(=O)c2ccc3c(c2)NC(=O)CCS3)cc1F,13.1
16,CC(Cc1cccnc1)NC(=O)c1cc(COc2c(F)cccc2F)on1 (centres unmarked),-0.158
17,CCC(=O)Oc1ccc(/C(CC)=C(\CC)c2ccc(OC(=O)CC)cc2)cc1,14.3
18,CCN1CCN(c2nc3c(c(=O)[nH]c(=O)n3C)n2CCCSc2ncccn2)CC1,3.05
19,Cc1ccccc1SCC(=O)Nc1ccc(N2CCOCC2)cc1,10.5
20,S=C(c1ccc(-c2ccccc2)cc1)N1CCOCC1,7.87
